Results on 1 compound are retold here after US20120189706A1, “Macrocystis Pyrifera Derived Health and Wellness Products and Methods of Using the Same” (Knocean Sciences, Inc., priority 2009, published 2012).

Values after ≈ are worked out from the molar mass of the structure shown.

This assay deals with Dengue Virus Type 2 strain New Guinea C. The assay is described as follows: Dengue Virus Cytoprotection assay. The format is cell-based. The note with it: Vero C1008, 168 h, DENV2 Strain New Guinea C, Vero E6 cells, 7 days. As to the method:
For each assay, a pre-titered aliquot of virus is removed from the freezer (−80° C.) and allowed to thaw slowly to room temperature in a biological safety cabinet. The virus is re-suspended and diluted into tissue culture medium such that the amount of virus added to each well is the amount determined to give between 85 to 95% cell killing at 6-7 days post-infection.

`NC(=O)c1ncn([C@@H]2O[C@H](CO)[C@@H](O)[C@H]2O)n1` [Ribavirin, ribavirin] had an IC50 of 30.7 µg/mL (≈ 126 µM).

For orientation: IC50 means the concentration at which inhibition is half-maximal. Read a low IC50 as inhibition by little substance.
